Consider 86 sequences from the supplement of paper PMC3334620.

Whole data set: some 33,000 sequences, median “E-score (-0.5 to 0.5)” near -0.041, cut for the highest 2% near 0.37. The list shows a part of the results.

In the test the target is T1, Ecm22 (UniProt Q05958).
T1 sequence: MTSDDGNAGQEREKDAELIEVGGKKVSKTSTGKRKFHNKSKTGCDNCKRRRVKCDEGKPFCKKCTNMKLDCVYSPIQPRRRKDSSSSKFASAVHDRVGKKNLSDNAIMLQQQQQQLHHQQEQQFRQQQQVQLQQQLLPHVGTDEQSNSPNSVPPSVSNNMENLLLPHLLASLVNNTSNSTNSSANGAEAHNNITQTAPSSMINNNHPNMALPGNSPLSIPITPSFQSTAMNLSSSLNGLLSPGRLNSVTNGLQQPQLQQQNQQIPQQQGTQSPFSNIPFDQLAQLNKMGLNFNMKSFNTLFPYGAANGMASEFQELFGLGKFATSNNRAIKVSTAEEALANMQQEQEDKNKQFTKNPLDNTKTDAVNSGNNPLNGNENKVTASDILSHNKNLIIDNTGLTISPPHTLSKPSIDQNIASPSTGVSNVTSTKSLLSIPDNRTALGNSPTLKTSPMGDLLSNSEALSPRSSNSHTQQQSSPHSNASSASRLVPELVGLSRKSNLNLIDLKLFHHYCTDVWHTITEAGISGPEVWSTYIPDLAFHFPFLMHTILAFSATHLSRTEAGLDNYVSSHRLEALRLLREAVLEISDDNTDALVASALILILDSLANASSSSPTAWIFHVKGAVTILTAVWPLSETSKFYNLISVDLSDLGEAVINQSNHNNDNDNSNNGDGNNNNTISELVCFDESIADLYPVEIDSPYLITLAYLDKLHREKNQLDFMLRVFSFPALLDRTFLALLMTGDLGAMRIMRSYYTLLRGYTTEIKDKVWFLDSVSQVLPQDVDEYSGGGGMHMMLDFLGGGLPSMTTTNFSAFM
As to the kind of experiment: PBM E-score (8-mer binding enrichment) (E-score (-0.5 to 0.5)); higher = stronger / more preferred TF binding; most listed sequences are background and not binding sites. As to conditions: protein concentration: 200 nM; construct: GST-full length. In short, it runs like this: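 Universal all-10-mer Agilent arrays, fresh or stripped once, were converted to double-stranded form by primer extension. GST-tagged yeast transcription factors from PURExpress in vitro transcription/translation, full-length or DNA-binding domain only, were applied at about 100-200 nM and detected with fluorescent anti-GST. After masliner normalisation, the Universal PBM Analysis Suite scored each ungapped eight-base word together with its reverse complement by E-score.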
As for ACGTTTAT, the “PBM E-score” value worked out at 0.298.

As to CGATAACG, the “PBM E-score” value was found to be 0.123.

On to CATGCATC, for which the “PBM E-score” value is -0.0492.

Regarding ACCAAAAT, the “PBM E-score” value turned out to be 0.00111.

Consider ACCCCCCC, for which the “PBM E-score” value is -0.351.

With ACCCCGGC, the “PBM E-score” value was -0.184.

For CTCAAGTA, the “PBM E-score” value was -0.142.

For the sequence GATAACGC, the “PBM E-score” value is 0.0437.

Take AGGCCAGC: the “PBM E-score” value was -0.0426.

In the case of CAGATACA, the “PBM E-score” value was 0.082.

With CAGTGTGC, the “PBM E-score” value was -0.129.

For the sequence ATAAGATA, the “PBM E-score” value worked out at 0.071.

Take AGGATGGC: the “PBM E-score” value was -0.126.

ACACTCCG: the “PBM E-score” value was 0.118.

CAGAGTGA: the “PBM E-score” value is -0.012.

AACTCGAT: the “PBM E-score” value stood at 0.124.

With CTCATTGA, the “PBM E-score” value is -0.0417.

As to AAGACCAC, the “PBM E-score” value is -0.319.

For GTAGCCAA, the “PBM E-score” value was -0.0181.

On to CGCTGGCC, for which the “PBM E-score” value was -0.0787.

In the case of CCAGAGAG, the “PBM E-score” value was -0.247.

Take AGTATAAG: the “PBM E-score” value is 0.109.

For CGACAGTC, the “PBM E-score” value was -0.0316.

For AGCAGCTG, the “PBM E-score” value was -0.139.

Take CGAGAGTA: the “PBM E-score” value amounted to 0.205.

Consider AAACCGTT, for which the “PBM E-score” value was 0.15.

Regarding GTAGGCGA, the “PBM E-score” value is 0.00726.

Take AGGCTATC: the “PBM E-score” value worked out at 0.131.

Take GTACTCAA: the “PBM E-score” value was -0.00237.

Consider ACGTGGGA, for which the “PBM E-score” value was -0.112.

On to AATTCGAT, for which the “PBM E-score” value stood at 0.0328.

Consider AGAGGTTA, for which the “PBM E-score” value was -0.14.

AATCACCG: the “PBM E-score” value was 0.0152.

Turning to TGCCGAAA, the “PBM E-score” value worked out at 0.0373.

For CCGCTATA, the “PBM E-score” value is 0.00229.

Take AATAGGAA: the “PBM E-score” value is -0.0522.

Regarding CGATGCCC, the “PBM E-score” value is 0.0358.

Turning to CGGTGCGA, the “PBM E-score” value was determined as 0.297.

Regarding AATTGGAA, the “PBM E-score” value is -0.0133.

As to ATTGGAGA, the “PBM E-score” value was 0.0401.

For ACAACTCA, the “PBM E-score” value was -0.157.

Take CCAGACGG: the “PBM E-score” value was -0.277.

Turning to CGTTATCC, the “PBM E-score” value was -0.00059.

Regarding CTCGGATC, the “PBM E-score” value is 0.27.

For the sequence AACAGACC, the “PBM E-score” value was found to be 0.02.

With CAACTCTG, the “PBM E-score” value was -0.0711.

With CCTGACCG, the “PBM E-score” value worked out at 0.0242.

On to CATTCGCC, for which the “PBM E-score” value is -0.0739.

As for AAAGATTT, the “PBM E-score” value worked out at 0.0259.

With CCGGTGCC, the “PBM E-score” value is -0.147.

For AGGCTGTG, the “PBM E-score” value is -0.17.

As to ACCTAGCC, the “PBM E-score” value was -0.184.

Consider AACCCGGA, for which the “PBM E-score” value worked out at 0.107.

Turning to ATGCCATC, the “PBM E-score” value came to 0.0126.

For ACGCGGTA, the “PBM E-score” value was 0.145.

Regarding GTTCAGTA, the “PBM E-score” value worked out at 0.185.

In the case of GCATATAC, the “PBM E-score” value stood at 0.174.

With CCTTCCAA, the “PBM E-score” value is -0.216.

As to GTATAGCA, the “PBM E-score” value worked out at 0.355.

In the case of TACACCTA, the “PBM E-score” value was determined as 0.0394.

As to CATAGGCG, the “PBM E-score” value was -0.118.

As to GGGCAAAA, the “PBM E-score” value is -0.0457.

Turning to ACGGGCAT, the “PBM E-score” value was 0.259.

As to GCAGGGAC, the “PBM E-score” value was -0.252.

For GAACGCTA, the “PBM E-score” value came to 0.0782.

On to GCTAGAGC, for which the “PBM E-score” value came to 0.011.

On to CTACGGTC, for which the “PBM E-score” value turned out to be 0.0518.

Consider AAATCATT, for which the “PBM E-score” value is -0.139.

On to CACAGTAC, for which the “PBM E-score” value is -0.0289.

CTCCATTC: the “PBM E-score” value is -0.209.

Take AGAATCCC: the “PBM E-score” value is 0.0534.

As to CTCGGGGC, the “PBM E-score” value was -0.135.

For CCCTTTTC, the “PBM E-score” value was 0.0358.

In the case of CAGTCCGG, the “PBM E-score” value is -0.052.

Turning to CACAACAC, the “PBM E-score” value was 0.0881.

ATTGCTCC: the “PBM E-score” value was -0.0538.

Turning to ATATCGGA, the “PBM E-score” value is 0.0637.

CAGCCTGG: the “PBM E-score” value was -0.229.

As for TACCCGTA, the “PBM E-score” value was 0.353.

For CTCCTACC, the “PBM E-score” value was -0.289.

As to AGACTGTG, the “PBM E-score” value is -0.0881.

With CAAAAAGG, the “PBM E-score” value was -0.0945.

Take AGTTGTTC: the “PBM E-score” value amounted to 0.114.

As for ATATCCGC, the “PBM E-score” value came out at 0.176.

Take CTAATGTC: the “PBM E-score” value was -0.169.

As for GTACGGAA, the “PBM E-score” value came out at 0.4.
